Measured values as given in the supplement of paper PMC8728848.
Some of the results follow.

Tests used:
Experiment in all cases: glycan array binding signal (z-score within array); higher = stronger binding
Conditions in all cases: glycan notation: IUPAC condensed, linker removed
[1] = biological target: Gal3S(b1-3)[Fuc(a1-4)]GlcNAc
Method in brief: (§1)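 Glycan array data were curated from 3228 arrays in the Consortium for Functional Glycomics database and kept only where the protein sequence was available. Glycan names were converted to IUPAC-condensed notation, and columns mapping to the same glycan were averaged. The binding signal is a within-array Z-score, averaged across arrays of the same protein sequence at different concentrations or buffers and across linkers. Negative Z-scores can be read as non-binding.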

Gal3S(b1-4)Glc = biological target: Gal3S(b1-4)Glc
Method in brief: as §1

Gal3S(b1-4)Glc6S = biological target: Gal3S(b1-4)Glc6S
Method in brief: as §1

Gal3S(b1-4)GlcNAc = biological target: Gal3S(b1-4)GlcNAc
Method in brief: as §1

[2] = biological target: Gal3S(b1-4)[Fuc(a1-3)]Glc6S
Method in brief: as §1

[3] = biological target: Gal3S(b1-4)[Fuc(a1-3)]GlcNAc
Method in brief: as §1

[4] = biological target: Gal3S(b1-4)[Fuc(a1-3)]GlcNAc6S
Method in brief: as §1

Gal3S4S(b1-4)GlcNAc = biological target: Gal3S4S(b1-4)GlcNAc
Method in brief: as §1

Gal3S6S(b1-4)GlcNAc = biological target: Gal3S6S(b1-4)GlcNAc
Method in brief: as §1

Gal3S6S(b1-4)GlcNAc6S = biological target: Gal3S6S(b1-4)GlcNAc6S
Method in brief: as §1

Gal4S(b1-4)GlcNAc = biological target: Gal4S(b1-4)GlcNAc
Method in brief: as §1

Gal4S6S(b1-4)GlcNAc = biological target: Gal4S6S(b1-4)GlcNAc
Method in brief: as §1

Gal6P(b1-4)GlcNAc = biological target: Gal6P(b1-4)GlcNAc
Method in brief: as §1

Gal6S(b1-3)GlcNAc = biological target: Gal6S(b1-3)GlcNAc
Method in brief: as §1

Gal6S(b1-3)GlcNAc6S = biological target: Gal6S(b1-3)GlcNAc6S
Method in brief: as §1

Gal6S(b1-4)Glc = biological target: Gal6S(b1-4)Glc
Method in brief: as §1

Gal6S(b1-4)Glc6S = biological target: Gal6S(b1-4)Glc6S
Method in brief: as §1

Gal6S(b1-4)GlcNAc = biological target: Gal6S(b1-4)GlcNAc
Method in brief: as §1

Gal6S(b1-4)GlcNAc6S = biological target: Gal6S(b1-4)GlcNAc6S
Method in brief: as §1

GalNAc(a1-3)Gal = biological target: GalNAc(a1-3)Gal
Method in brief: as §1

GalNAc(a1-3)GalNAc = biological target: GalNAc(a1-3)GalNAc
Method in brief: as §1

[5] = biological target: GalNAc(a1-3)GalNAc(b1-3)Gal(a1-4)Gal(b1-4)Glc
Method in brief: as §1

[6] = biological target: GalNAc(a1-3)GalNAc(b1-3)Gal(a1-4)Gal(b1-4)GlcNAc
Method in brief: as §1

GalNAc(b1-3)Gal = biological target: GalNAc(b1-3)Gal
Method in brief: as §1

[7] = biological target: GalNAc(b1-3)Gal(a1-4)Gal(b1-4)GlcNAc
Method in brief: as §1

[8] = biological target: GalNAc(b1-3)Gal(a1-4)Gal(b1-4)GlcNAc(b1-3)Gal(b1-4)Glc
Method in brief: as §1

[9] = biological target: GalNAc(b1-3)Gal(a1-6)Gal(b1-4)Glc
Method in brief: as §1

GalNAc(b1-3)GalNAc = biological target: GalNAc(b1-3)GalNAc
Method in brief: as §1

GalNAc(b1-3)GlcNAc = biological target: GalNAc(b1-3)GlcNAc
Method in brief: as §1

GalNAc(b1-4)Gal(b1-4)Glc = biological target: GalNAc(b1-4)Gal(b1-4)Glc
Method in brief: as §1

GalNAc(b1-4)GlcNAc = biological target: GalNAc(b1-4)GlcNAc
Method in brief: as §1

[10] = biological target: GalNAc(b1-4)GlcNAc(b1-2)Man
Method in brief: as §1

[11] = biological target: GalNAc(b1-4)GlcNAc(b1-2)Man(a1-3)[GalNAc(b1-4)GlcNAc(b1-2)Man(a1-6)]Man(b1-4)GlcNAc(b1-4)GlcNAc
Method in brief: as §1

[12] = biological target: GalNAc(b1-4)GlcNAc(b1-3)GalNAc(b1-4)GlcNAc
Method in brief: as §1

GalNAc(b1-4)GlcNAc6S = biological target: GalNAc(b1-4)GlcNAc6S
Method in brief: as §1

GalNAc(b1-6)GalNAc = biological target: GalNAc(b1-6)GalNAc
Method in brief: as §1

GalNAc3S(b1-4)GlcNAc = biological target: GalNAc3S(b1-4)GlcNAc
Method in brief: as §1

GalNAc3S(b1-4)GlcNAc3S = biological target: GalNAc3S(b1-4)GlcNAc3S
Method in brief: as §1

[13] = biological target: GalNAc3S(b1-4)[Fuc(a1-3)]GlcNAc
Method in brief: as §1

GalNAc4S6S(b1-4)GlcNAc = biological target: GalNAc4S6S(b1-4)GlcNAc
Method in brief: as §1

GalNAc6S(b1-4)GlcNAc = biological target: GalNAc6S(b1-4)GlcNAc
Method in brief: as §1

Glc(a1-4)Glc = biological target: Glc(a1-4)Glc
Method in brief: as §1

[14] = biological target: Glc(a1-4)Glc(a1-4)Glc(a1-4)Glc
Method in brief: as §1

Glc(a1-6)Glc(a1-6)Glc = biological target: Glc(a1-6)Glc(a1-6)Glc
Method in brief: as §1

[15] = biological target: Glc(a1-6)Glc(a1-6)Glc(a1-6)Glc
Method in brief: as §1

Glc(b1-4)Glc = biological target: Glc(b1-4)Glc
Method in brief: as §1

Glc(b1-6)Glc = biological target: Glc(b1-6)Glc
Method in brief: as §1

GlcA(b1-3)Gal = biological target: GlcA(b1-3)Gal
Method in brief: as §1

GlcA(b1-3)GlcNAc = biological target: GlcA(b1-3)GlcNAc
Method in brief: as §1

GlcA(b1-6)Gal = biological target: GlcA(b1-6)Gal
Method in brief: as §1

[16] = biological target: GlcA3S(b1-3)Gal(b1-4)GlcNAc(b1-2)Man
Method in brief: as §1

[17] = biological target: GlcA3S(b1-3)Gal(b1-4)GlcNAc(b1-3)Gal(b1-4)Glc
Method in brief: as §1

[18] = biological target: GlcNAc(a1-3)Gal(b1-4)GlcNAc
Method in brief: as §1

[19] = biological target: GlcNAc(a1-4)Gal(b1-3)GlcNAc
Method in brief: as §1

[20] = biological target: GlcNAc(a1-4)Gal(b1-4)GalNAc
Method in brief: as §1

[21] = biological target: GlcNAc(a1-4)Gal(b1-4)GlcNAc
Method in brief: as §1

[22] = biological target: GlcNAc(a1-4)Gal(b1-4)GlcNAc(b1-3)Gal(b1-4)Glc
Method in brief: as §1

[23] = biological target: GlcNAc(a1-4)Gal(b1-4)GlcNAc(b1-3)Gal(b1-4)GlcNAc
Method in brief: as §1

[24] = biological target: GlcNAc(a1-4)Gal(b1-4)GlcNAc(b1-3)Gal(b1-4)GlcNAc(b1-3)Gal(b1-4)GlcNAc
Method in brief: as §1

[25] = biological target: GlcNAc(a1-4)Gal(b1-4)GlcNAc(b1-3)Gal(b1-4)[Fuc(a1-3)]GlcNAc(b1-3)Gal(b1-4)[Fuc(a1-3)]GlcNAc
Method in brief: as §1

B1: CC1G-10077 (Coprinopsis cinerea), A8NDT7 (protein)
chain: MALNEGVYWIRNSRFTNKVLDLDAANVAKGTSILDFNEHGTFNENHNQLWIVERFQSRDTYLIRSVHSNLVLDLSQGLSANGTPILCWTQHGGTNQQWRIEWVKDDNKTPLYRIVSVATGTAISHNEDDSSAYTVAWSVDDGPKQLWSFDPFVTPLLYRLRVKSTSRVLDLAAASADNGTLALAWEQHTAITKRNQLWWLPYRSGAEEYTIQCLETSTVADLSGGNSGNGTPIYGWQSHGGRNQQWKFEPTSDSGDYYHIKNVEGGSVMDAYMNDSQKRVGGWSNNGGDNQKWLLDPLPSPGPGWVLIQNGGTGKFLCSTPSGDIGTADGPETVYDYSVQWRFIQREYTGVYHVVNRATGAYLRQIGTSMPSIGLAEENDDELKDWWMLETYDNSEIGLASIISRWTGNVLDHYGGVSVQALDNNTENSYRSWAIIPARDWLTSFSLVNGQGGLCLAAQYAREETRLSTTANVNDFHAQWVFRKPSGSSGYTIQNKYNNHYVGGTSARWELVVCCNKYFGIRNTSTQKYLAIEDGQVTFQDQDMTDRKQCWELCSGRATDTSGNDYDLIYMDDDLLEVMIPWVGDKQGDLKHYIEKRATKKPPKDKGGWQLPAAGLIKKPKFNDIRQLLQELIEQWEWDVVNEEREQIQTLVSIDEAEARRLLGRRPHPDIVAAYQRSRSSTLFRIDRQGYFNIAGDRYVNIQGQYGDDSYFHIALPVGVRFGREQIRRFLRDSLDRSTSVTITPTTCKPPSGGPDYNRDPDSDGDNSWIKWTIAVVGTSAIKHSEL
[1]
  glycan array binding signal (z-score): -0.438
Gal3S(b1-4)Glc
  glycan array binding signal (z-score): -0.433
Gal3S(b1-4)Glc6S
  glycan array binding signal (z-score): -0.453
Gal3S(b1-4)GlcNAc
  glycan array binding signal (z-score): -0.495
[2]
  glycan array binding signal (z-score): -0.31
[3]
  glycan array binding signal (z-score): -0.451
[4]
  glycan array binding signal (z-score): -0.528
Gal3S4S(b1-4)GlcNAc
  glycan array binding signal (z-score): -0.534
Gal3S6S(b1-4)GlcNAc
  glycan array binding signal (z-score): -0.418
Gal3S6S(b1-4)GlcNAc6S
  glycan array binding signal (z-score): -0.371
Gal4S(b1-4)GlcNAc
  glycan array binding signal (z-score): -0.404
Gal4S6S(b1-4)GlcNAc
  glycan array binding signal (z-score): -0.493
Gal6P(b1-4)GlcNAc
  glycan array binding signal (z-score): -0.493
Gal6S(b1-3)GlcNAc
  glycan array binding signal (z-score): -0.094
Gal6S(b1-3)GlcNAc6S
  glycan array binding signal (z-score): -0.314
Gal6S(b1-4)Glc
  glycan array binding signal (z-score): 0.062
Gal6S(b1-4)Glc6S
  glycan array binding signal (z-score): 0.111
Gal6S(b1-4)GlcNAc
  glycan array binding signal (z-score): -0.049
Gal6S(b1-4)GlcNAc6S
  glycan array binding signal (z-score): -0.429
GalNAc(a1-3)Gal
  glycan array binding signal (z-score): 0.671
GalNAc(a1-3)GalNAc
  glycan array binding signal (z-score): -0.162
[5]
  glycan array binding signal (z-score): 0.152
[6]
  glycan array binding signal (z-score): 0.309
GalNAc(b1-3)Gal
  glycan array binding signal (z-score): 1.42
[7]
  glycan array binding signal (z-score): -0.066
[8]
  glycan array binding signal (z-score): 2.66
[9]
  glycan array binding signal (z-score): 1.07
GalNAc(b1-3)GalNAc
  glycan array binding signal (z-score): -0.165
GalNAc(b1-3)GlcNAc
  glycan array binding signal (z-score): 1.23
GalNAc(b1-4)Gal(b1-4)Glc
  glycan array binding signal (z-score): -0.482
GalNAc(b1-4)GlcNAc
  glycan array binding signal (z-score): 3.09
[10]
  glycan array binding signal (z-score): 1.76
[11]
  glycan array binding signal (z-score): 1.83
[12]
  glycan array binding signal (z-score): 4.2
GalNAc(b1-4)GlcNAc6S
  glycan array binding signal (z-score): 4.35
GalNAc(b1-6)GalNAc
  glycan array binding signal (z-score): -0.509
GalNAc3S(b1-4)GlcNAc
  glycan array binding signal (z-score): -0.462
GalNAc3S(b1-4)GlcNAc3S
  glycan array binding signal (z-score): -0.355
[13]
  glycan array binding signal (z-score): -0.43
GalNAc4S6S(b1-4)GlcNAc
  glycan array binding signal (z-score): -0.346
GalNAc6S(b1-4)GlcNAc
  glycan array binding signal (z-score): 2.21
Glc(a1-4)Glc
  glycan array binding signal (z-score): -0.482
[14]
  glycan array binding signal (z-score): -0.448
Glc(a1-6)Glc(a1-6)Glc
  glycan array binding signal (z-score): -0.497
[15]
  glycan array binding signal (z-score): -0.522
Glc(b1-4)Glc
  glycan array binding signal (z-score): -0.507
Glc(b1-6)Glc
  glycan array binding signal (z-score): -0.505
GlcA(b1-3)Gal
  glycan array binding signal (z-score): -0.418
GlcA(b1-3)GlcNAc
  glycan array binding signal (z-score): -0.467
GlcA(b1-6)Gal
  glycan array binding signal (z-score): -0.357
[16]
  glycan array binding signal (z-score): -0.411
[17]
  glycan array binding signal (z-score): -0.495
[18]
  glycan array binding signal (z-score): -0.489
[19]
  glycan array binding signal (z-score): -0.493
[20]
  glycan array binding signal (z-score): -0.544
[21]
  glycan array binding signal (z-score): -0.436
[22]
  glycan array binding signal (z-score): -0.478
[23]
  glycan array binding signal (z-score): -0.431
[24]
  glycan array binding signal (z-score): -0.384
[25]
  glycan array binding signal (z-score): -0.441
